No constants are given. Whether binding was seen depends on the method and setting. In cells and extracts the contact can be indirect. Some entries that bind do so weakly or less than the wild type. For part of these data: Where a sequence is shown, tags or fusion partners need not be part of it.

By UniProt entry, the sequences of proteins in these tests, tags left out. Residues count along the entry.
UniProt P16092, residues 22-822: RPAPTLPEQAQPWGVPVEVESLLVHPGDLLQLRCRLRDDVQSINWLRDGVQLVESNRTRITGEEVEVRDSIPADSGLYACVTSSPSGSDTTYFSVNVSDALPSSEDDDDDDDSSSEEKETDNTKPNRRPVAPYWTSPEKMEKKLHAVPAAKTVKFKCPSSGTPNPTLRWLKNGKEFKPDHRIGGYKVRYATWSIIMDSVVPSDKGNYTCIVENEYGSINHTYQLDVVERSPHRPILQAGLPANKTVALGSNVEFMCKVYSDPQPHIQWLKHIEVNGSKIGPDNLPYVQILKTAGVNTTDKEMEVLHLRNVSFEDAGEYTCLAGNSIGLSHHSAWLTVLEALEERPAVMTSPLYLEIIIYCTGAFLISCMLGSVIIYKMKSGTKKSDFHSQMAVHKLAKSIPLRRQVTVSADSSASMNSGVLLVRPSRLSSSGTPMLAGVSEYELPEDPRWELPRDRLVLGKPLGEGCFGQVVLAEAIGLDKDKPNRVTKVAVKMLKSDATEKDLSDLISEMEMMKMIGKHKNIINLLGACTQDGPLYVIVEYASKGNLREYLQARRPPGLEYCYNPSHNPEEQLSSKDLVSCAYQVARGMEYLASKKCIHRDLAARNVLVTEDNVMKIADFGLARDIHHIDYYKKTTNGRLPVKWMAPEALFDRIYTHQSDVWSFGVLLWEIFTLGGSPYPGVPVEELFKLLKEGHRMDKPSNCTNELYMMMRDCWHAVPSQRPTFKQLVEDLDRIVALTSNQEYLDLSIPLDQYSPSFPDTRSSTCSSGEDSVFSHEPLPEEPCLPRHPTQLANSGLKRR
UniProt P21803, residues 22-821: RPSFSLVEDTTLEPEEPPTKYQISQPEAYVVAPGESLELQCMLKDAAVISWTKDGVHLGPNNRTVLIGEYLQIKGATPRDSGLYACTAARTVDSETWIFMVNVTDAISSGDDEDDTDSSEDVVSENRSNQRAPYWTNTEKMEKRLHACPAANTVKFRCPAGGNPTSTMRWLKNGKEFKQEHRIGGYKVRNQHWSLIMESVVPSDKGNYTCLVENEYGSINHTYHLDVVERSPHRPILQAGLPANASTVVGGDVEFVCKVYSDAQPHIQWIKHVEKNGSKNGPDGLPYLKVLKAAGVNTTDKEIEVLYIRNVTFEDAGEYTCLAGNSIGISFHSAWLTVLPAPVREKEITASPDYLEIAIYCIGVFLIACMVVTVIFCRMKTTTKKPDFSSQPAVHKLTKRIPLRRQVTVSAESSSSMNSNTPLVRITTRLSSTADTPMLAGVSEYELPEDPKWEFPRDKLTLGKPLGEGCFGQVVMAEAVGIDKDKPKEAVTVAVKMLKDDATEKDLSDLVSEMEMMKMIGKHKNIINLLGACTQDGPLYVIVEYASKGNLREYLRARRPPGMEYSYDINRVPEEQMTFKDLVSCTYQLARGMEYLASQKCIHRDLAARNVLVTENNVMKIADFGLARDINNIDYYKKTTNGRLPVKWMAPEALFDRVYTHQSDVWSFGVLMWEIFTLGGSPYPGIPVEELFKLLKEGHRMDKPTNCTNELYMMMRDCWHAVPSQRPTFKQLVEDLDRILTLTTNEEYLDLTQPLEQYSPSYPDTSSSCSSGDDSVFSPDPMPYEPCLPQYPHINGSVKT
UniProt Q61851, residues 21-801: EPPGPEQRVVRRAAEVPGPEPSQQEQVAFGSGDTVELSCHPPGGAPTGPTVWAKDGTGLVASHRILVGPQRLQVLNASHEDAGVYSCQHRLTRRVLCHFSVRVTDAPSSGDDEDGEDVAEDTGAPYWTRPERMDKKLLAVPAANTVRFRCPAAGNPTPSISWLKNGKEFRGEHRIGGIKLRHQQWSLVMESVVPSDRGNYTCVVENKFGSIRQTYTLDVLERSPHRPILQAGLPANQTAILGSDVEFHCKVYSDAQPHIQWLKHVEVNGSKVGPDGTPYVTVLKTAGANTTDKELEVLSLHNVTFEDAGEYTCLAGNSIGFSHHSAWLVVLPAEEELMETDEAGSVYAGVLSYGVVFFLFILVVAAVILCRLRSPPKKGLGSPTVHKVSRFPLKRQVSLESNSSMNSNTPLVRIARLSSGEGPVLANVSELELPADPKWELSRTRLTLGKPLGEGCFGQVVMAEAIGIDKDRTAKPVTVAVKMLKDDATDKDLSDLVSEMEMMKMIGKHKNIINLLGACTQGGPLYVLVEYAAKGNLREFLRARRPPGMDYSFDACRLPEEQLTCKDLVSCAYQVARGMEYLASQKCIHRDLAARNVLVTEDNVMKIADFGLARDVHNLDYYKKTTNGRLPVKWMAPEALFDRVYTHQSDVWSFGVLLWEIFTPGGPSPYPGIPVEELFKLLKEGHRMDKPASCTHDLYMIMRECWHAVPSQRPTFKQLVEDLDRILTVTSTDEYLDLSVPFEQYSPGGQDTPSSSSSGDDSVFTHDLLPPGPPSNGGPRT
UniProt P26618, residues 25-1089: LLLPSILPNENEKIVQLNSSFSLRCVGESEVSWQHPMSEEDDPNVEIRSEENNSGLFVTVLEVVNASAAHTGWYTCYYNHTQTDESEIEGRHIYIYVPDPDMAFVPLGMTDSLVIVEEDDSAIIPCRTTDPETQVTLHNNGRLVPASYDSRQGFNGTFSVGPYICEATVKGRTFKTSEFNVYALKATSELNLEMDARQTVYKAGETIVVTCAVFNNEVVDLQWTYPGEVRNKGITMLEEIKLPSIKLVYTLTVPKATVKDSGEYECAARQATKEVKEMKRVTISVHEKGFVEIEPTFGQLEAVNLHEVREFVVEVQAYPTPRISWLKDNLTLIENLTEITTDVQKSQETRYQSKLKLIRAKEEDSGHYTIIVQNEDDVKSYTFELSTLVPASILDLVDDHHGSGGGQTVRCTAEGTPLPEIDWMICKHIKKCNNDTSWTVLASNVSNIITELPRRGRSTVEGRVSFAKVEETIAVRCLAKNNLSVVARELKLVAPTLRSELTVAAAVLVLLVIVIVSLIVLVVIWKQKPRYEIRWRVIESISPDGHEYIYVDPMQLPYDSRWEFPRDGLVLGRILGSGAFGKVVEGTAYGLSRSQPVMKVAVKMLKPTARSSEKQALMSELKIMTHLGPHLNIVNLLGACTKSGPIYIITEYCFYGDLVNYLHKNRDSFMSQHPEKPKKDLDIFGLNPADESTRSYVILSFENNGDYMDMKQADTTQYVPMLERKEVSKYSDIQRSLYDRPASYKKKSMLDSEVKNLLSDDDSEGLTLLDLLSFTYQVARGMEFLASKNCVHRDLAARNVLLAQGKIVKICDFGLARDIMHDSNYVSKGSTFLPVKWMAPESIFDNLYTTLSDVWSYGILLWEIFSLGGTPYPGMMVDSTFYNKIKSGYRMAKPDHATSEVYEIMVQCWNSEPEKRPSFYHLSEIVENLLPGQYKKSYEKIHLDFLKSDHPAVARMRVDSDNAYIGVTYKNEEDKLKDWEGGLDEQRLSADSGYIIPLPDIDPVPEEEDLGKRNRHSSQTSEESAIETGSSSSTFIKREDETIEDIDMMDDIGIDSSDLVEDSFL
UniProt P05622, residues 32-1098: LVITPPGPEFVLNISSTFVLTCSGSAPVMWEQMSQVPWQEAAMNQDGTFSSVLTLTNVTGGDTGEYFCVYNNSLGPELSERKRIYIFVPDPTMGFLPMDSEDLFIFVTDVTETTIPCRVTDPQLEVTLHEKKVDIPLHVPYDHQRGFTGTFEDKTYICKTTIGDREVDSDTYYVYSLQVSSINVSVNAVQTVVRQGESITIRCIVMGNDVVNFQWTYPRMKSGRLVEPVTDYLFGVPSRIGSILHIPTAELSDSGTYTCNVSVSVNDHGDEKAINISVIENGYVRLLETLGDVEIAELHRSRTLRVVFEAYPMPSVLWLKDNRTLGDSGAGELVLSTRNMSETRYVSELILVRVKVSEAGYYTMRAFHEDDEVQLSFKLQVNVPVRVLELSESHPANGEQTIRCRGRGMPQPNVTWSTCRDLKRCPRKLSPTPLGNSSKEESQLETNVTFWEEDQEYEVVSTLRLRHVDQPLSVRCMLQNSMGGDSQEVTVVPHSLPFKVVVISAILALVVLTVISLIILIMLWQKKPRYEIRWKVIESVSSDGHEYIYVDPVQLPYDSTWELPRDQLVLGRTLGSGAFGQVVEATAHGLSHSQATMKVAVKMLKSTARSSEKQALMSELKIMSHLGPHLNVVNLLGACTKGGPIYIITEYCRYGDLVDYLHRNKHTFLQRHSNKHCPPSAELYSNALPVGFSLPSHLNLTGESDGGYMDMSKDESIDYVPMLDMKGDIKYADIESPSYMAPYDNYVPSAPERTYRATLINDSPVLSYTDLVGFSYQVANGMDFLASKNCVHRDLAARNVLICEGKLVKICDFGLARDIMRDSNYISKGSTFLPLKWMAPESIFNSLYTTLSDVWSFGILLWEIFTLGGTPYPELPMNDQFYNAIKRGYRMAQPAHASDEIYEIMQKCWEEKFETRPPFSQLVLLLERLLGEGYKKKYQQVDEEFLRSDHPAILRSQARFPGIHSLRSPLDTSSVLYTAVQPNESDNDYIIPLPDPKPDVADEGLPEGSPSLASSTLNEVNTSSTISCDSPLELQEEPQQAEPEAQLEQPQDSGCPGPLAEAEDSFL

Test [1] deals with T1, Nf2 (endogenous, primary CNC-derived osteoblasts) (mouse (endogenous in primary CNC-derived osteoblasts)) (UniProt P46662).
T1 sequence: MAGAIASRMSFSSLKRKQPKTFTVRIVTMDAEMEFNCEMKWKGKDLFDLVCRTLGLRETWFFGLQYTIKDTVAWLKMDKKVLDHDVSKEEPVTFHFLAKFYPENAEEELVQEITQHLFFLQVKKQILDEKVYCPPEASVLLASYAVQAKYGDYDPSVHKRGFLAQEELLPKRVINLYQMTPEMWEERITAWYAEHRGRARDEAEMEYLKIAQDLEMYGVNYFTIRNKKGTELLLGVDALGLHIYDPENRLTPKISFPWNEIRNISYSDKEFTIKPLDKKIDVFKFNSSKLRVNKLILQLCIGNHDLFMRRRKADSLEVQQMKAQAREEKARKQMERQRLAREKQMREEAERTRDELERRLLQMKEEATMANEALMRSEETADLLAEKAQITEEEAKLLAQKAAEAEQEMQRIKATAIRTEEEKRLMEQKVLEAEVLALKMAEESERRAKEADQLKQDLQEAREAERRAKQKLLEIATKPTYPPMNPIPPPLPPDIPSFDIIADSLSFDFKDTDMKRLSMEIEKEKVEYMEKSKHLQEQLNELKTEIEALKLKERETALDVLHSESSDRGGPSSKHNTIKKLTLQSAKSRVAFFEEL
Briefly: co-IP; endogenous co-IP from lysate of primary CNC-derived osteoblasts; co-IP buffer (25 mM Tris, 150 mM NaCl, 1% NP-40, 1 mM EDTA, 5% glycerol, pH 7.4); antibody overnight at 4°C, Dynabeads, Western blot. A general note: In western blotting, separated proteins are transferred to a membrane and probed.

Test [2] has as its target T2, Nf2-Flag (neurofibromin 2, Merlin) (UniProt P46662).
T2 sequence: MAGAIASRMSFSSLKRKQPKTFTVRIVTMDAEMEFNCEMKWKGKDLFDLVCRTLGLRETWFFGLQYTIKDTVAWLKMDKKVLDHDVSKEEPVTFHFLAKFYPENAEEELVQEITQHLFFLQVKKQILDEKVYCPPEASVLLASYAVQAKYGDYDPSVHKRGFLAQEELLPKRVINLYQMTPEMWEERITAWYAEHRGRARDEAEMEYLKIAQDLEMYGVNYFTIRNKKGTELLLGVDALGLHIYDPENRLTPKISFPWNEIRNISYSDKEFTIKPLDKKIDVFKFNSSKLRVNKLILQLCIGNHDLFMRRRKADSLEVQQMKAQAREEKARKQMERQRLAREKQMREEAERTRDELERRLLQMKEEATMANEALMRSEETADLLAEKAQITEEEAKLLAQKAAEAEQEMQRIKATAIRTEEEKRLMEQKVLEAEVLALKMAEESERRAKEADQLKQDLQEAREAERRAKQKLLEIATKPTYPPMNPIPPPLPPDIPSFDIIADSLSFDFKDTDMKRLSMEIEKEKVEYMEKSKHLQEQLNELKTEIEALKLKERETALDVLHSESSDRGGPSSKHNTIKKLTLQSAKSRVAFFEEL
Nature of the test: co-IP; HEK293T cells transfected with tagged plasmids (Flag, HA); lysate in co-IP buffer (25 mM Tris, 150 mM NaCl, 1% NP-40, 1 mM EDTA, 5% glycerol, pH 7.4); co-IP antibody or normal IgG overnight at 4°C, Dynabeads, Western blot.

The next test has as its target T3, Nf2 S518A-Flag (UniProt P46662).
T3 sequence: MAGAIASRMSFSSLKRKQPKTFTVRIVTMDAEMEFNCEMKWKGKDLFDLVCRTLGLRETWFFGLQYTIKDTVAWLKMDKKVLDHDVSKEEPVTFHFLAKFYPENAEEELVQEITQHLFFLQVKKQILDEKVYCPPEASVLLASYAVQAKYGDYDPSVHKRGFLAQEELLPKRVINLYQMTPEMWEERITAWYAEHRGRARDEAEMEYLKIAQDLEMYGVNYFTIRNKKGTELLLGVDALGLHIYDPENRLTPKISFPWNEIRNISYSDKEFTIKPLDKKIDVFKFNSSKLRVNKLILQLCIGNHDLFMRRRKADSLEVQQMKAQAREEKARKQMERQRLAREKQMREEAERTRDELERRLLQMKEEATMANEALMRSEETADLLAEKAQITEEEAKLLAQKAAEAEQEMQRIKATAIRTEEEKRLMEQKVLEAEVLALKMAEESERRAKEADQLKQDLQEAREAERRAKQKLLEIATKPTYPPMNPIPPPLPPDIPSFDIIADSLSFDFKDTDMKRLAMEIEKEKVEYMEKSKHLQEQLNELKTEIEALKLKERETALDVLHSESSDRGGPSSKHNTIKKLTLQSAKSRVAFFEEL
Described as above.

For the next test, the target named is T4, Nf2 T230A-Flag (UniProt P46662).
T4 sequence: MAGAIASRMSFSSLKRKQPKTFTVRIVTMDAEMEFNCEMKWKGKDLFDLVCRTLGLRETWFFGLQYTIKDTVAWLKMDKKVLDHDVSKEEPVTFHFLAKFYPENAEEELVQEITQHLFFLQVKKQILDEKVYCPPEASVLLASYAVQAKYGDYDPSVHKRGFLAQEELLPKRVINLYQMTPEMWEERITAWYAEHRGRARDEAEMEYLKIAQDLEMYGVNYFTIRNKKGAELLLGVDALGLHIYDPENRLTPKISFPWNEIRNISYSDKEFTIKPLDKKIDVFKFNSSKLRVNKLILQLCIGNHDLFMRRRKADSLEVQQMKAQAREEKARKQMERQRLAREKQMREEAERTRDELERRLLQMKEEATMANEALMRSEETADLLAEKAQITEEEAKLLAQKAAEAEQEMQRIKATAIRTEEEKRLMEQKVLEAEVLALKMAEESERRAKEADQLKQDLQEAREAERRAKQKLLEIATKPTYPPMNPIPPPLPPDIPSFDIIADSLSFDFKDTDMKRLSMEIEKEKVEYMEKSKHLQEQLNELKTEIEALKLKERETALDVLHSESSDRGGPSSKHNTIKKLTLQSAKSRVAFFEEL
The description is as above.

The target in another test is T5, Nf2 S315A-Flag (UniProt P46662).
T5 sequence: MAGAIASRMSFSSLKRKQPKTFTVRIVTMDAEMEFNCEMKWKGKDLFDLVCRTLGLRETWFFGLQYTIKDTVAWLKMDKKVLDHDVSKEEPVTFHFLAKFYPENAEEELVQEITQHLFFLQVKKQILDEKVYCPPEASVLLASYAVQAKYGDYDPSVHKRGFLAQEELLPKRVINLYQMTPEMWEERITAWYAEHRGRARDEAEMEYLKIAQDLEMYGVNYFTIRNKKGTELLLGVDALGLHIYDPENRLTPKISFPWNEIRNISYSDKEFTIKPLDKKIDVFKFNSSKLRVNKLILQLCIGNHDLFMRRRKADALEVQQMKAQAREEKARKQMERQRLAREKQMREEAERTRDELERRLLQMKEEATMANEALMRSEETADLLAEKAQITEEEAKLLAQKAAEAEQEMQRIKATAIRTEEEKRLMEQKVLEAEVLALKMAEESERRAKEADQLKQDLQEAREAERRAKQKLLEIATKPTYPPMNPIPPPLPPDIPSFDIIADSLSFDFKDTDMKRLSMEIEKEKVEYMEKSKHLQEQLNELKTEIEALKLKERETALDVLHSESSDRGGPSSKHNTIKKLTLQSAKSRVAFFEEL
Described as above.

The target in another test is T6, Nf2 S10A-Flag (UniProt P46662).
T6 sequence: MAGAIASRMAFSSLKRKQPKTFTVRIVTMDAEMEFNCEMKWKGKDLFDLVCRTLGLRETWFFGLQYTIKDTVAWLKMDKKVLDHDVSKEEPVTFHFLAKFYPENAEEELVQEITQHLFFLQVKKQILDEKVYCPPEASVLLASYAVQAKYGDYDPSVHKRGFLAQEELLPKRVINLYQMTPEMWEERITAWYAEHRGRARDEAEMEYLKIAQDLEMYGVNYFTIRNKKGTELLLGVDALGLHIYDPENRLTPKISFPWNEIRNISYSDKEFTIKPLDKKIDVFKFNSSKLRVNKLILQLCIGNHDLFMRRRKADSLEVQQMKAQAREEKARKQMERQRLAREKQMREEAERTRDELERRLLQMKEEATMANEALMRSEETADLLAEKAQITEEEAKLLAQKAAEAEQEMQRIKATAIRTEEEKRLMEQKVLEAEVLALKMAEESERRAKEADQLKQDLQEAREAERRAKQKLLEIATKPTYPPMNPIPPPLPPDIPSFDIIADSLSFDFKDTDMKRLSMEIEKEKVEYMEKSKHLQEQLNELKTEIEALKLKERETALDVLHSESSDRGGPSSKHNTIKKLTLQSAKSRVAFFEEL
The description is as above.

The target of test [3] is T2, Nf2-Flag (neurofibromin 2, Merlin). Briefly: co-IP; co-IP of FGFR1, Akt and Nf2 together (FGFR1 and Akt tested in the presence of Nf2); cells and constructs not told in the text (Supplemental Figure 3C).
The target of test [4] is T7, Nf2-Flag (neurofibromin 2, Merlin), P46662.
T7 chain: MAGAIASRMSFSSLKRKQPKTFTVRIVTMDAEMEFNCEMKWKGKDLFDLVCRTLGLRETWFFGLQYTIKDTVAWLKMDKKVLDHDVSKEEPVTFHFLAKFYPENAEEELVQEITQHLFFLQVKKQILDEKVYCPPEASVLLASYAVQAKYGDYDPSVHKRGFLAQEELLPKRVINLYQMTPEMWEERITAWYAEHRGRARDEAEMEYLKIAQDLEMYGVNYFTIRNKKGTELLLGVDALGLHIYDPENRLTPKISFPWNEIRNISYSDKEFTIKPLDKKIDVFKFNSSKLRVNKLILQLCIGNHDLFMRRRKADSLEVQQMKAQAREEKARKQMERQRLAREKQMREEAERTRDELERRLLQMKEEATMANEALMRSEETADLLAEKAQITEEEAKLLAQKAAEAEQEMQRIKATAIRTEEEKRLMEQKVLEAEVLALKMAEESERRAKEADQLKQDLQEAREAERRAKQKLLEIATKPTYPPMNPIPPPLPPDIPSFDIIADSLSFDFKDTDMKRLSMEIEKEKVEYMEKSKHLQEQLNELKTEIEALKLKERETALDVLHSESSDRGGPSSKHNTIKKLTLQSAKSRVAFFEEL
Nature of the test: co-IP; HEK293T cells transfected with tagged plasmids (Flag, HA); lysate in co-IP buffer (25 mM Tris, 150 mM NaCl, 1% NP-40, 1 mM EDTA, 5% glycerol, pH 7.4); co-IP antibody or normal IgG overnight at 4°C, Dynabeads, Western blot. Conditions: remark: other sources report otherwise.

Take “FGFR1 (endogenous, primary CNC-derived osteoblasts) (from UniProt P16092 22-822) (receptor)”: the binding entry in test [1] is given as “binds”.

Take “FGFR1-HA (FGF receptor 1) (from UniProt P16092 22-822)”: the binding result in test [2] is reported as “binds”; in the test with Nf2 S518A-Flag, “no binding”; with Nf2 T230A-Flag, “binds”; with Nf2 S315A-Flag it was “no binding”; with Nf2 S10A-Flag, “binds”; in test [3] it was “binds”.

With “FGFR2 (from UniProt P21803 22-821) (receptor)”, the binding entry in test [2] is on record as “no binding”.

Consider “FGFR3 (from UniProt Q61851 21-801) (receptor)”, for which, in test [2], the binding entry was “no binding”.

Consider “PDGFRα (from UniProt P26618 25-1089) (receptor)”, for which the binding result in test [2] is given as “no binding”.

“PDGFRβ (from UniProt P05622 32-1098) (receptor)”: the binding result in test [2] was “no binding”.

B1: FGFR4, Q03142 17-799 (receptor)
chain: LSLEASEEMEQEPCLAPILEQQEQVLTVALGQPVRLCCGRTERGRHWYKEGSRLASAGRVRGWRGRLEIASFLPEDAGRYLCLARGSMTVVHNLTLLMDDSLTSISNDEDPKTLSSSSSGHVYPQQAPYWTHPQRMEKKLHAVPAGNTVKFRCPAAGNPMPTIHWLKDGQAFHGENRIGGIRLRHQHWSLVMESVVPSDRGTYTCLVENSLGSIRYSYLLDVLERSPHRPILQAGLPANTTAVVGSDVELLCKVYSDAQPHIQWLKHVVINGSSFGADGFPYVQVLKTTDINSSEVEVLYLRNVSAEDAGEYTCLAGNSIGLSYQSAWLTVLPEEDLTWTTATPEARYTDIILYVSGSLVLLVLLLLAGVYHRQVIRGHYSRQPVTIQKLSRFPLARQFSLESRSSGKSSLSLVRGVRLSSSGPPLLTGLVNLDLPLDPLWEFPRDRLVLGKPLGEGCFGQVVRAEAFGMDPSRPDQTSTVAVKMLKDNASDKDLADLVSEMEVMKLIGRHKNIINLLGVCTQEGPLYVIVECAAKGNLREFLRARRPPGPDLSPDGPRSSEGPLSFPALVSCAYQVARGMQYLESRKCIHRDLAARNVLVTEDDVMKIADFGLARGVHHIDYYKKTSNGRLPVKWMAPEALFDRVYTHQSDVWSFEILLWEIFTLGGSPYPGIPVEELFSLLREGHRMERPPNCPSELYGLMRECWHAAPSQRPTFKQLVEALDKVLLAVSEEYLDLRLTFGPFSPSNGDASSTCSSSDSVFSHDPLPLEPSPFPFSDSQTT
For B1, in test [4], the binding entry is reported as “no binding”.

Source of the values: publication PMC12487865.
